# Assay results: the supplement of paper PMC8728848
# The list shows a part of the results.
# Legend:
# Experiment in all cases: glycan array binding signal (z-score within array); higher = stronger binding
# Conditions in all cases: glycan notation: IUPAC condensed, linker removed
# Fuc(a1-2)Gal = target: Fuc(a1-2)Gal
# How it was run: (§1)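 The Consortium for Functional Glycomics database supplied 3228 glycan arrays, of which those lacking an available protein sequence were dropped. The binding signal, a within-array Z-score, was averaged across arrays of the same protein sequence and across linkers. Negative scores can be read as non-binding.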
# Fuc(a1-2)Gal(b1-3)GalNAc = target: Fuc(a1-2)Gal(b1-3)GalNAc
# How it was run: as §1
# [1] = target: Fuc(a1-2)Gal(b1-3)GalNAc(a1-3)[Fuc(a1-2)]Gal(b1-4)Glc
# How it was run: as §1
# [2] = target: Fuc(a1-2)Gal(b1-3)GalNAc(a1-3)[Fuc(a1-2)]Gal(b1-4)GlcNAc
# How it was run: as §1
# [3] = target: Fuc(a1-2)Gal(b1-3)GalNAc(b1-3)Gal
# How it was run: as §1
# [4] = target: Fuc(a1-2)Gal(b1-3)GalNAc(b1-3)Gal(a1-4)Gal(b1-4)Glc
# How it was run: as §1
# [5] = target: Fuc(a1-2)Gal(b1-3)GalNAc(b1-4)[Neu5Ac(a2-3)]Gal(b1-4)Glc
# How it was run: as §1
# Fuc(a1-2)Gal(b1-3)GlcNAc = target: Fuc(a1-2)Gal(b1-3)GlcNAc
# How it was run: as §1
# [6] = target: Fuc(a1-2)Gal(b1-3)GlcNAc(b1-2)Man(a1-3)[Fuc(a1-2)Gal(b1-3)GlcNAc(b1-2)Man(a1-6)]Man(b1-4)GlcNAc(b1-4)GlcNAc
# How it was run: as §1
# [7] = target: Fuc(a1-2)Gal(b1-3)GlcNAc(b1-2)Man(a1-3)[Fuc(a1-2)Gal(b1-3)GlcNAc(b1-2)Man(a1-6)]Man(b1-4)GlcNAc(b1-4)[Fuc(a1-6)]GlcNAc
# How it was run: as §1
# [8] = target: Fuc(a1-2)Gal(b1-3)GlcNAc(b1-3)Gal(b1-4)Glc
# How it was run: as §1
# [9] = target: Fuc(a1-2)Gal(b1-3)GlcNAc(b1-3)GalNAc
# How it was run: as §1
# [10] = target: Fuc(a1-2)Gal(b1-3)GlcNAc(b1-3)[Fuc(a1-2)Gal(b1-3)GlcNAc(b1-6)]GalNAc
# How it was run: as §1
# [11] = target: Fuc(a1-2)Gal(b1-3)GlcNAc(b1-3)[Gal(b1-4)GlcNAc(b1-6)]Gal(b1-4)Glc
# How it was run: as §1
# [12] = target: Fuc(a1-2)Gal(b1-3)GlcNAc(b1-3)[Neu5Ac(a2-6)Gal(b1-4)GlcNAc(b1-6)]Gal(b1-4)Glc
# How it was run: as §1
# [13] = target: Fuc(a1-2)Gal(b1-3)GlcNAc6S
# How it was run: as §1
# [14] = target: Fuc(a1-2)Gal(b1-3)[Fuc(a1-4)]GlcNAc
# How it was run: as §1
# [15] = target: Fuc(a1-2)Gal(b1-3)[Fuc(a1-4)]GlcNAc(b1-2)Man(a1-3)[Fuc(a1-2)Gal(b1-3)[Fuc(a1-4)]GlcNAc(b1-2)Man(a1-3)]Man(b1-4)GlcNAc(b1-4)GlcNAc
# How it was run: as §1
# [16] = target: Fuc(a1-2)Gal(b1-3)[Fuc(a1-4)]GlcNAc(b1-2)Man(a1-3)[Fuc(a1-2)Gal(b1-3)[Fuc(a1-4)]GlcNAc(b1-2)Man(a1-6)]Man(b1-4)GlcNAc(b1-4)[Fuc(a1-6)]GlcNAc(b1-4)[Fuc(a1-6)]GlcNAc
# How it was run: as §1
# [17] = target: Fuc(a1-2)Gal(b1-3)[Fuc(a1-4)]GlcNAc(b1-3)[Fuc(a1-3)[Gal(b1-4)]GlcNAc(b1-6)]Gal(b1-4)Glc
# How it was run: as §1
# [18] = target: Fuc(a1-2)Gal(b1-3)[Fuc(a1-4)]GlcNAc(b1-3)[Gal(b1-4)GlcNAc(b1-6)]Gal(b1-4)Glc
# How it was run: as §1
# Fuc(a1-2)Gal(b1-4)Glc = target: Fuc(a1-2)Gal(b1-4)Glc
# How it was run: as §1
# Fuc(a1-2)Gal(b1-4)Glc6S = target: Fuc(a1-2)Gal(b1-4)Glc6S
# How it was run: as §1
# Fuc(a1-2)Gal(b1-4)GlcNAc = target: Fuc(a1-2)Gal(b1-4)GlcNAc
# How it was run: as §1
# [19] = target: Fuc(a1-2)Gal(b1-4)GlcNAc(b1-2)Man
# How it was run: as §1
# [20] = target: Fuc(a1-2)Gal(b1-4)GlcNAc(b1-2)Man(a1-3)[Fuc(a1-2)Gal(b1-4)GlcNAc(b1-2)Man(a1-6)]Man(b1-4)GlcNAc(b1-4)GlcNAc
# How it was run: as §1
# [21] = target: Fuc(a1-2)Gal(b1-4)GlcNAc(b1-2)Man(a1-3)[Fuc(a1-2)Gal(b1-4)GlcNAc(b1-2)Man(a1-6)]Man(b1-4)GlcNAc(b1-4)[Fuc(a1-6)]GlcNAc
# How it was run: as §1
# [22] = target: Fuc(a1-2)Gal(b1-4)GlcNAc(b1-2)[Fuc(a1-2)Gal(b1-4)GlcNAc(b1-4)]Man(a1-3)[Fuc(a1-2)Gal(b1-4)GlcNAc(b1-2)Man(a1-6)]Man(b1-4)GlcNAc(b1-4)GlcNAc
# How it was run: as §1
# [23] = target: Fuc(a1-2)Gal(b1-4)GlcNAc(b1-3)Gal(b1-4)GlcNAc
# How it was run: as §1
# [24] = target: Fuc(a1-2)Gal(b1-4)GlcNAc(b1-3)Gal(b1-4)GlcNAc(b1-2)Man(a1-3)[Fuc(a1-2)Gal(b1-4)GlcNAc(b1-3)Gal(b1-4)GlcNAc(b1-2)Man(a1-6)]Man(b1-4)GlcNAc(b1-4)GlcNAc
# How it was run: as §1
binder,measurement,setting,value
PfulAvr4 (Pseudocercospora fuligena) (protein) HHHHHHDYKDDDDKTYVQDKTPAFVCPAADIKTTKCLGPKDCLYPSPKTCNGYIQCSPADDSYLTGIIHEMPCPSGLLWNDNKKWCDWPENTTCGLVKSAGATEVDATKQGPTPGKYHG,glycan array binding signal (z-score),Fuc(a1-2)Gal,-0.028
same,glycan array binding signal (z-score),Fuc(a1-2)Gal(b1-3)GalNAc,-0.107
same,glycan array binding signal (z-score),[1],-0.126
same,glycan array binding signal (z-score),[2],-0.043
same,glycan array binding signal (z-score),[3],-0.098
same,glycan array binding signal (z-score),[4],-0.068
same,glycan array binding signal (z-score),[5],-0.13
same,glycan array binding signal (z-score),Fuc(a1-2)Gal(b1-3)GlcNAc,-0.1
same,glycan array binding signal (z-score),[6],0.455
same,glycan array binding signal (z-score),[7],0.058
same,glycan array binding signal (z-score),[8],-0.135
same,glycan array binding signal (z-score),[9],-0.069
same,glycan array binding signal (z-score),[10],-0.074
same,glycan array binding signal (z-score),[11],-0.126
same,glycan array binding signal (z-score),[12],-0.127
same,glycan array binding signal (z-score),[13],-0.168
same,glycan array binding signal (z-score),[14],-0.041
same,glycan array binding signal (z-score),[15],1.42
same,glycan array binding signal (z-score),[16],0.148
same,glycan array binding signal (z-score),[17],-0.076
same,glycan array binding signal (z-score),[18],-0.112
same,glycan array binding signal (z-score),Fuc(a1-2)Gal(b1-4)Glc,-0.059
same,glycan array binding signal (z-score),Fuc(a1-2)Gal(b1-4)Glc6S,-0.14
same,glycan array binding signal (z-score),Fuc(a1-2)Gal(b1-4)GlcNAc,-0.177
same,glycan array binding signal (z-score),[19],0.198
same,glycan array binding signal (z-score),[20],-0.118
same,glycan array binding signal (z-score),[21],0.297
same,glycan array binding signal (z-score),[22],0.195
same,glycan array binding signal (z-score),[23],-0.157
same,glycan array binding signal (z-score),[24],0.172
